Laboratory results as given in PubChem BioAssay AID1347165 (National Center for Advancing Translational Sciences (NCATS), 2019).
“And” between values parts separate entries of the source, which are not always exact repeats. Equal entries are not always repeated. The campaign covered roughly 220,000 compounds. About 5,700 (2.6%) were called active. Inconclusive results, whose numbers are uncertain, are shown with a selection of clear calls. The call rests on the fitted dose curve; in most records, active means well fitted inhibition curve with a large enough effect; inconclusive means small, poorly fitted or top-dose-only effect; inactive means no such curve, though single readings can be large or run the other way. Potencies of inconclusive entries are doubtful fits and often do not repeat.

Target: Lysine-specific demethylase 5B (Homo sapiens) (UniProt Q9UGL1)
Experiment: Primary screen for KDM5B Histone Demethylases FDH-coupled qHTS; further: nearly all actives have a fitted effect of over 70% in size; on activity change, negative = inhibition: 0% is about no effect
Conditions: FDH-coupled NADH fluorescence (FDH is formaldehyde dehydrogenase); activity change, negative = inhibition: at 57.7 µM (top of the series) unless noted
How it was run: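 Compound dilutions met 200 nM (final) KDM5BΔAP for 10 min at room temperature before substrate addition. The substrate mix held 12.5 µM H3K4me3 with cofactors 25 µM α-ketoglutarate and 50 µM Fe²⁺. NADH signal gain over 30 min defined activity.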
Potency means the concentration at half of the fitted maximal effect; tags describe the fitted curve by direction and shape.

Sequence of UniProt Q9UGL1 (Q9UGL1 whole entry, looked up): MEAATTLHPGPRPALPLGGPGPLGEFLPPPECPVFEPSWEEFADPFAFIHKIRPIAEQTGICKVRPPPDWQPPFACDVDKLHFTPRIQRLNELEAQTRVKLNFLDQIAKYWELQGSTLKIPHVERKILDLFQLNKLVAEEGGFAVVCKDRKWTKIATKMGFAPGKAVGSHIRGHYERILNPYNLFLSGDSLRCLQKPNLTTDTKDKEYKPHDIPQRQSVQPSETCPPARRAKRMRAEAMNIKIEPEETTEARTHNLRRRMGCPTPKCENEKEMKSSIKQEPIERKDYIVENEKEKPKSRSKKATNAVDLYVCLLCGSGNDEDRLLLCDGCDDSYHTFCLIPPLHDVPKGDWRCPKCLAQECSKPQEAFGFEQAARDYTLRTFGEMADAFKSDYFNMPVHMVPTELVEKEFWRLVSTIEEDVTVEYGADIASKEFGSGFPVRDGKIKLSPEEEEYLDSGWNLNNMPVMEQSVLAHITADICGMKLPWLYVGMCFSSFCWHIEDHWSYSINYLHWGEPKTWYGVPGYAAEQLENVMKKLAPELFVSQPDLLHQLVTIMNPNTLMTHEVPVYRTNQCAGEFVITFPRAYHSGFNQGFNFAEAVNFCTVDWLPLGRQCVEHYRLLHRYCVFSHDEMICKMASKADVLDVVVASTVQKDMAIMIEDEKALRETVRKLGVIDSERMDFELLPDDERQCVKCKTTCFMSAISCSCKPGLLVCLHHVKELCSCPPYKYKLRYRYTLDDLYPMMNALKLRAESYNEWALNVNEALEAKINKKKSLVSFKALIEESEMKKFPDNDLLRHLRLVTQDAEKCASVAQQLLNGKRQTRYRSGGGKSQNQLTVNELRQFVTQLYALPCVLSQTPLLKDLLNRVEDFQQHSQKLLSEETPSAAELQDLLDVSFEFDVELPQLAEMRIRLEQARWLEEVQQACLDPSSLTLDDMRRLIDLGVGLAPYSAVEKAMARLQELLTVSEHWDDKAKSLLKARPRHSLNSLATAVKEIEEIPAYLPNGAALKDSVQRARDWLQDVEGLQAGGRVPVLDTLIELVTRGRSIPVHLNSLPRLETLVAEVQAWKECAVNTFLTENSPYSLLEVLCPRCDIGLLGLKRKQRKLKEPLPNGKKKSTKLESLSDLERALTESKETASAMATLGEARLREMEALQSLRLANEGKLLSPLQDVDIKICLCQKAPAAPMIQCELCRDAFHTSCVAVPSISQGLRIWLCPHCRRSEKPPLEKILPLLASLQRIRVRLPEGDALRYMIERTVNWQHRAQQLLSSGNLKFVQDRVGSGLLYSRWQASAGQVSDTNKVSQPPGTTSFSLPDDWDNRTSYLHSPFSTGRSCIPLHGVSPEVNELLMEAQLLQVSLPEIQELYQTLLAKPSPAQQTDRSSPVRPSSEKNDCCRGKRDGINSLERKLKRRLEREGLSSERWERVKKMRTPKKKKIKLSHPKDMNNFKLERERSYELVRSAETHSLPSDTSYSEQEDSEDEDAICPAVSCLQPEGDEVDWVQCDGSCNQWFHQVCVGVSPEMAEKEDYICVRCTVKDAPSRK

Row | SMILES | Potency | activity change, negative = inhibition
1 | CCOC(=O)CN1C(=O)C2(CC(=O)Nc3[nH]ncc32)c2ccccc21 (stereo not drawn) | inactive | –
2 | COc1cccc(CNC(=O)c2cnc(N3CCCCC3)c3ccccc23)c1 | inconclusive: 39.8 µM [inhibitor, single point] | –
3 | O=C(c1cccc2[nH]ccc12)N1CCC2(CC1)N(Cc1cccc(F)c1)C(=O)CS2=O (stereo not drawn) | active: 17.8 µM | –
4 | Cc1noc(-c2ccccc2NC(=O)C2CC(=O)N(c3cccc(C(F)(F)F)c3)C2)n1 (stereo not drawn) | inactive | –
5 | CC1C(=O)N2CCCc3cc(S(=O)(=O)N4CCC(C(N)=O)CC4)cc1c32 (stereo not drawn) | inconclusive: 15.8 µM [inhibitor, partial curve, poor fit] | –
6 | COc1ccccc1NC(=O)c1oc2ccccc2c1NC(=O)C1CCCCC1 | inconclusive: 1.12 µM [inhibitor, partial curve, poor fit] | –
7 | CCCN(CCC)C(=O)[C@@]12CCCC[C@H]1N(CCC(C)C)C(=O)CC2 | inactive | –
8 | Cc1cc(-c2cc3c(cn2)CN(Cc2ccc(C(F)(F)F)cc2)CCN3)ccn1 | inconclusive: 35.5 µM [inhibitor, single point] | –
9 | CCCSCCCNC(=O)c1ccc2c(c1)sc1nc(-c3ccc(OCC)cc3)cn12 | inconclusive: 3.55 µM [inhibitor, full curve, poor fit] | –
10 | COc1ccc(CNC(=O)CSc2cc(C)c3ccc(OC)cc3n2)cc1 | inactive | –
11 | CCCn1nnnc1CN1CCCC1c1ccc2c(c1)OCCO2 (stereo not drawn) | inconclusive: 17.8 µM [inhibitor, single point] | –
12 | COc1ccc(-c2nc(-c3nnn4c3COC(c3ccc(Cl)cc3)C4)no2)cc1F (stereo not drawn) | inconclusive: 39.8 µM [inhibitor, single point] | –
13 | Cc1ccc(C=O)n1-c1ccncc1 | inactive | –
14 | O=C(CCOc1ccccc1)N(Cc1cccnc1)c1nc2c(F)cccc2s1 | inconclusive: 39.8 µM [inhibitor, single point] | –
15 | Cc1cc(C(=O)N[C@H]2CCOC[C@H]2C2CCOCC2)cc(C)n1 | inactive | –
16 | CCCCn1c(Cn2ccnc2C)nc2cc(NC(=O)c3ccccc3C)ccc21 | inactive | –
17 | O=C(O)CC1(CC(=O)N2CCN3C(=O)c4cc(-c5ccsc5)ccc4NC(=O)[C@@H]3C2)CCCC1 | inconclusive: 28.2 µM [inhibitor, partial curve, poor fit] | –
18 | CCOC(=O)C1=C(C)N=C2SC=C(CC(=O)Nc3ccc(OC)cc3)N2C1c1ccccc1F (stereo not drawn) | inconclusive: 22.4 µM [inhibitor, single point] | –
19 | Cc1ccccc1CSc1cn(CC(=O)N2CCCCCC2)c2ccccc12 | inconclusive: 25.1 µM [inhibitor, partial curve, poor fit] | –
20 | CN1[C@@H](CCC(=O)N2CCOCC2)CNC(=O)[C@@H]2[C@H]1CCN2Cc1ccc(S(C)(=O)=O)cc1 | inconclusive: 17.8 µM [inhibitor, single point] | –
21 | CC(C)S(=O)(=O)c1csc(NC(=O)Nc2cc(Cl)ccc2Cl)c1Cl | inconclusive: 39.8 µM [inhibitor, single point] | –

Row | SMILES | Potency | activity change, negative = inhibition
22 | COC(=O)c1cc(C(c2ccccc2O)C2CCCO2)n2cccc(C(C)(C)C)c12 (stereo not drawn) | inconclusive: 1.78 µM [inhibitor, partial curve, poor fit] | –
23 | COc1cccc(-c2nc(CS(=O)(=O)CC(=O)NCc3cccnc3)c(C)o2)c1 | inactive | –
24 | Cc1cccc(N(CC(=O)N[C@H]2CC[C@H]2NC2CCCC2)S(C)(=O)=O)c1 | inconclusive: 39.8 µM [inhibitor, partial curve, poor fit] | –
25 | COc1ccc(CNC(=O)Cn2c(=O)cc(-c3ccccc3)c3c(C)nn(C)c32)cc1 | inconclusive: 15.8 µM [inhibitor, partial curve, poor fit] | –
26 | CCc1nc(N2CCN(C(=O)CN3CCOCC3)CC2)c(C#N)c2c1COC(C)(C)C2 | inconclusive: 28.2 µM [inhibitor, partial curve, poor fit] | –
27 | COc1ccc(S(=O)(=O)N(CC(=O)Nc2cccnc2)c2ccc(Cl)cc2)cc1 | inconclusive: 31.6 µM [inhibitor, single point] | –
28 | COc1cc(CN(CCN(C)C)Cc2ccccc2)cc(OC)c1OC | inconclusive: 35.5 µM [inhibitor, single point] | –
29 | COc1ccc(C2NC(=S)NC3=C2CCc2cc(OC)ccc23)cc1 (stereo not drawn) | inconclusive: 25.1 µM [inhibitor, partial curve, poor fit] | –
30 | COc1ccc(NC(=O)Cn2c(=O)ccc3cc(S(=O)(=O)N4CCCC4)ccc32)cc1Cl | inconclusive: 1.26 µM [inhibitor, partial curve, poor fit] | –
31 | O=C(NCCC(c1ccccc1)c1ccccc1)NNc1cnccn1 | inconclusive: 5.01 µM [inhibitor, full curve, poor fit] | –
32 | O=C1CO[C@H]2CCN(Cc3ccc4[nH]ccc4c3)CC[C@@H]2N1Cc1ccc(O)cc1 | inconclusive: 28.2 µM [inhibitor, partial curve, poor fit] | –
33 | COc1ccc(CCNc2nc3c(-c4cccc(C)c4)nnn3c3ccccc23)cc1OC | inconclusive: 2.24 µM [inhibitor, full curve, poor fit] | –
34 | COc1ccc(OCCOC(=O)CCC(=O)c2ccc3c(c2)OCCO3)cc1 | inactive | –
35 | COc1ccccc1CNC(=O)c1cc2n(n1)CC(c1ccc3c(c1)OCO3)OC2 (stereo not drawn) | active: 25.1 µM | –
36 | COc1ccc(-c2onc(C)c2C)cc1S(=O)(=O)NCC1CCN(Cc2cccc(F)c2)CC1 | inconclusive: 28.2 µM [inhibitor, single point] | –
37 | O=C(c1ccoc1)N1CCC2(CC1)CN(Cc1ccccc1)CC2CO (stereo not drawn) | inconclusive: 39.8 µM [inhibitor, partial curve, poor fit] | –
38 | COc1ccc(NC(=O)c2c(NCc3cccc(OC)c3)sc3c2CCCC3)cc1 | inconclusive: 25.1 µM [inhibitor, partial curve, poor fit] | –
39 | O=C(C1CCCCC1)N1CCN(C2CCN(Cc3cccnc3)C2=O)CC1 (stereo not drawn) | inactive | –
40 | O=C(CCC1N=C2c3ccccc3N=C(SCc3ccccc3F)N2C1=O)NCc1ccc(F)cc1 (stereo not drawn) | inconclusive: 20 µM [inhibitor, partial curve, poor fit] | –
41 | O=C(c1ccsc1)N1CCC2(CC1)CC(N(Cc1ccc(F)cc1)C1CC1)CCO2 (stereo not drawn) | inactive | –
42 | CC(C)(C)c1ccc(C(=O)N2CCC(c3nc4ccccc4o3)CC2)cc1 | – | inconclusive: -32.1% [inhibitor]

Row | SMILES | Potency | activity change, negative = inhibition
43 | Cc1ccc(-n2c(=O)c3c(c4cc(C)ccc4n3C)n(CC(=O)NCc3ccccc3)c2=O)cc1 | inconclusive: 1 µM [inhibitor, full curve, poor fit] | –
44 | O=C(c1ccc2c(c1)OCO2)N1CCC(N2Cc3cccn3C2=O)CC1 | inconclusive: 39.8 µM [inhibitor, partial curve, poor fit] | –
45 | CCN1CCc2nc3sc(C(=O)c4ccc(F)cc4)c(N)c3cc2C1 | inconclusive: 14.1 µM [inhibitor, partial curve, poor fit] and inconclusive: 15.8 µM [inhibitor, single point] | –
46 | N#Cc1ccc(CN2CCC3(CC(Cc4ccccc4)=NO3)C2)cc1 (stereo not drawn) | inconclusive: 28.2 µM [inhibitor, single point] | –
47 | CCN1c2cc(C(=O)Nc3cccc(C(F)(F)F)c3)ccc2C(=O)N2CCCCC21 (stereo not drawn) | inconclusive: 31.6 µM [inhibitor, partial curve, poor fit] | –
48 | Cc1ccccc1OCC(=O)NC12CC3CC(CC(C3)C1)C2 | inactive | –
49 | CCC[C@@H]1CN(Cc2cn[nH]n2)C[C@H]1C(=O)O | inconclusive: 1.41 µM [inhibitor, full curve, poor fit] | –
50 | COc1ccc(NC(=O)c2nc3ccccc3nc2N2CCN(C)CC2)cc1 | inactive | –
51 | Cc1nn(Cc2ccccc2)c(C)c1[C@@H]1C=C[C@@H](NC(=O)Nc2cccc(C#N)c2)C1 | inconclusive: 28.2 µM [inhibitor, partial curve] | –
52 | CC(=O)Nc1nc2n(n1)C(c1ccccc1)C=C(c1ccccc1)N2 (stereo not drawn) | inconclusive: 25.1 µM [inhibitor, partial curve, poor fit] | –
53 | CCc1ccc(Oc2coc3cc(O)ccc3c2=O)cc1 | inconclusive: 35.5 µM [inhibitor, partial curve, poor fit] | –
54 | CS(=O)(=O)c1ccc(OCC2(CNC(=O)c3ccno3)C[C@@H](O)[C@@H](O)C2)cc1 (stereo partly drawn) | inconclusive: 39.8 µM [inhibitor, single point] | –
55 | CCOc1ccc(NC(=O)CN(C)C(=O)c2cn(-c3ccccc3)nc2-c2cccs2)cc1OCC | inconclusive: 28.2 µM [inhibitor, partial curve, poor fit] | –
56 | COc1ccc(NC(=O)CCC2CCN(C(=O)c3ccccc3)CC2)c(OC)c1 | inconclusive: 22.4 µM [inhibitor, partial curve, poor fit] | –
57 | CC(=O)N1CCC(N2C[C@H](O)C[C@H]2c2nc(CS(=O)(=O)c3ccc(C)cc3)no2)CC1 | inactive | –
58 | COc1cccc(C(=O)OCc2ccc(C#N)cc2)c1OC | inactive | –
59 | Cc1ccoc1C(=O)N[C@@H]1CN(c2ncccn2)C[C@H]1CO | active: 25.1 µM | –
60 | Fc1ccc(-c2nnc3ccc(NCC4CC4)nn23)nc1 | inconclusive: 31.6 µM [inhibitor, single point] | –
61 | Cc1c(C)n(CCCN(C)C)c2ncn3nc(COc4ccc(C(C)(C)C)cc4)nc3c12 | inactive | –
62 | O=C(O)/C=C/c1ccc(Cl)c(C(F)(F)F)c1 | inactive | –
63 | O=C(Nc1ccc(F)c(Cl)c1)C1CCCN(c2cnccn2)C1 (stereo not drawn) | inconclusive: 20 µM [inhibitor, partial curve, poor fit] | –
